Laboratory results as given in US20250025582A1, “LIGANDS AND THEIR USE” (THE UNIVERSITY OF SYDNEY, priority 2020, published 2025).

Tested on: HT-29 cells
Experiment: Cell binding assay: membrane-bound and internalised fractions of radiolabelled mAb
Format: cell-based
Settings: 1 h and 2 h
Protocol: HT-29 cells were seeded at a density of 7.5×10^2 cells/well in a 24-well plate with a final number of approximately 2.5×10^5 cells per well. The radiolabelled mAbs (Compound D2-mAb[^89Zr], Compound D2-mAb[^177Lu], DFOB-mAb[^89Zr], DOTA-mAb[^177Lu]) were diluted in serum-free (SF) cell growth medium (0.02 μg, 15 mCi) and 100 μL of each solution was added to each well. The cells were incubated in triplicate for 0.5, 1, and 2 hours at 37° C. in a 5% CO2 atmosphere in a humidified incubator.
At each time point, internalization was halted by removing the growth medium and washing the cells twice with ice-cold PBS (1×, pH 7.4, 200 μL). […] The buffer was collected from each well and the radioactivity measured in a gamma counter to determine the membrane-bound fraction. […]
Cells were treated with sodium hydroxide (1N, 200 μL) for 30 minutes to lyse the cells, internalised fractions collected, and the radioactivity measured of the subsequent fractions in a gamma-counter.
Cells were counted after the assay from 4 non-experimental wells and the cell numbers were averaged to obtain an estimate of the number of cells per well. Non-specific binding and internalization were then determined by co-incubating cells with non-radiolabelled (2 μg, 50 μL) and radio-labelled (0.02 μg, 50 μL) compound for each well, and repeating the above procedures for membrane-bound and internalised fractions.

B1: Compound D2-mAb[^177Lu]: Compound D2-Girentuximab conjugate radiolabelled with 177Lu (conjugate, chains of the INN, looked up)
heavy: DVKLVESGGGLVKLGGSLKLSCAASGFTFSNYYMSWVRQTPEKRLELVAAINSDGGITYYLDTVKGRFTISRDNAKNTLYLQMSSLKSEDTALFYCARHRSGYFSMDYWGQGTSVTVSS[human IgG1 constant region not given here]
light: DIVMTQSQRFMSTTVGDRVSITCKASQNVVSAVAWYQQKPGQSPKLLIYSASNRYTGVPDRFTGSGSGTDFTLTISNMQSEDLADFFCQQYSNYPWTFGGGTKLEIKRTVAAPSVFIFPPSDEQLKSGTASVVCLLNNFYPREAKVQWKVDNALQSGNSQESVTEQDSKDSTYSLSSTLTLSKADYEKHKVYACEVTHQGLSSPVTKSFNRGEC
modifications: Compound D2 chelator, 177Lu
notes: Compound D2-Girentuximab conjugate radiolabelled with 177Lu
Compound D2-mAb[177Lu] compared with DOTA-mAb[177Lu]
  fraction of membrane bound or internalised radiolabelled mAb: similar

B2: Compound D2-mAb[^89Zr]: Compound D2-Girentuximab conjugate radiolabelled with 89Zr (conjugate, chains of the INN, looked up)
heavy: DVKLVESGGGLVKLGGSLKLSCAASGFTFSNYYMSWVRQTPEKRLELVAAINSDGGITYYLDTVKGRFTISRDNAKNTLYLQMSSLKSEDTALFYCARHRSGYFSMDYWGQGTSVTVSS[human IgG1 constant region not given here]
light: DIVMTQSQRFMSTTVGDRVSITCKASQNVVSAVAWYQQKPGQSPKLLIYSASNRYTGVPDRFTGSGSGTDFTLTISNMQSEDLADFFCQQYSNYPWTFGGGTKLEIKRTVAAPSVFIFPPSDEQLKSGTASVVCLLNNFYPREAKVQWKVDNALQSGNSQESVTEQDSKDSTYSLSSTLTLSKADYEKHKVYACEVTHQGLSSPVTKSFNRGEC
modifications: Compound D2 chelator, 89Zr
notes: Compound D2-Girentuximab conjugate radiolabelled with 89Zr
Compound D2-mAb[89Zr] compared with DFOB-mAb[89Zr]
  fraction of membrane bound or internalised radiolabelled mAb: similar
